In patent US20180362604A1 (SHIRE HUMAN GENETIC THERAPIES, published 2018):

How the values were obtained:
Activin A = biological target: T1, Activin A (UniProt P08476 311-426); test: cell-based or functional assay
T1 sequence (looked up): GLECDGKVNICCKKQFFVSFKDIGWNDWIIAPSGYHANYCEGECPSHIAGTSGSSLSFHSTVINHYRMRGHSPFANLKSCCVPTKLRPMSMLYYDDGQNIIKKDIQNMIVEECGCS

Myostatin [1] = biological target: T2, Myostatin (UniProt O14793 267-375); test: SPR (BIAcore), anti-human Fc capture, myostatin as analyte
T2 construct: bought protein; also called GDF-8; MST
T2 sequence (looked up): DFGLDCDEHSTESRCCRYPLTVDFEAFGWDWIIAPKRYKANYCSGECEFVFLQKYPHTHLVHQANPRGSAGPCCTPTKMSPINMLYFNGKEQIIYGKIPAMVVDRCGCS

Myostatin [2] = biological target: T2, Myostatin; test: SPR
BMP-10 = biological target: T3, BMP-10 (UniProt O95393 317-424); test: SPR (BIAcore), anti-human Fc capture, BMP-10 as analyte
T3 construct: bought protein; also called bone morphogenic protein-10
T3 sequence (looked up): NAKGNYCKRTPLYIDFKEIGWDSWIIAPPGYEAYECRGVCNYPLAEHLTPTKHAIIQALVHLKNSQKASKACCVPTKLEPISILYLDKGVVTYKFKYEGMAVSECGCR

BMP-9 = biological target: T4, BMP-9 (UniProt Q9UK05 320-429); test: SPR (BIAcore), anti-human Fc capture, BMP-9 as analyte
T4 construct: bought protein; also called bone morphogenic protein-9
T4 sequence (looked up): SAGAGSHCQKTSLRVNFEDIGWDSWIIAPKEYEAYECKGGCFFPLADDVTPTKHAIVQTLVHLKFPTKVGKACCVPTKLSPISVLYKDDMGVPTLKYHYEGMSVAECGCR

B1: FS315K(76,82,84)E-hFcLALA (Fc fusion)
chain: GNCWLRQAKNGRCQVLYKTELSKEECCSTGRLSTSWTEEDVNDNTLFKWMIFNGGAPNCIPCKETCENVDCGPGKECRMNKENEPRCVCAPDCSNITWKGPVCGLDGKTYRNECALLKARCKEQPELEVQYQGRCKKTCRDVFCPGSSTCVVDQTNNAYCVTCNRICPEPASSEQYLCGNDGVTYSSACHLRKATCLLGRSIGLAYEGKCIKAKSCEDIQCTGGKKCLWDFKVGRGRCSLCDELCPDSKSDEPVCASDNATYASECAMKEAACSSGVLLEVKHSGSCNSISEDTEEEEEDEDQDYSFPISSILEW[here human IgG1 Fc with changes without letters]
notes: printed only as 'K(76,82,84)E'
Activin A IC50, cell-based assay for SMAD pathway (A204 luciferase reporter) (Activin A): 1 nM

B2: FS315P85T-hFcLALA (Fc fusion)
chain: GNCWLRQAKNGRCQVLYKTELSKEECCSTGRLSTSWTEEDVNDNTLFKWMIFNGGAPNCIPCKETCENVDCGPGKKCRMNKKNKTRCVCAPDCSNITWKGPVCGLDGKTYRNECALLKARCKEQPELEVQYQGRCKKTCRDVFCPGSSTCVVDQTNNAYCVTCNRICPEPASSEQYLCGNDGVTYSSACHLRKATCLLGRSIGLAYEGKCIKAKSCEDIQCTGGKKCLWDFKVGRGRCSLCDELCPDSKSDEPVCASDNATYASECAMKEAACSSGVLLEVKHSGSCNSISEDTEEEEEDEDQDYSFPISSILEW[here human IgG1 Fc with changes without letters]
Kd (Myostatin [1]): 0.0124 nM | Kd (Myostatin [2]): 0.0124 nM

B3: FS315R78E/K82E-hFcLALA (Fc fusion)
chain: GNCWLRQAKNGRCQVLYKTELSKEECCSTGRLSTSWTEEDVNDNTLFKWMIFNGGAPNCIPCKETCENVDCGPGKKCEMNKENKPRCVCAPDCSNITWKGPVCGLDGKTYRNECALLKARCKEQPELEVQYQGRCKKTCRDVFCPGSSTCVVDQTNNAYCVTCNRICPEPASSEQYLCGNDGVTYSSACHLRKATCLLGRSIGLAYEGKCIKAKSCEDIQCTGGKKCLWDFKVGRGRCSLCDELCPDSKSDEPVCASDNATYASECAMKEAACSSGVLLEVKHSGSCNSISEDTEEEEEDEDQDYSFPISSILEW[here human IgG1 Fc with changes without letters]
Activin A IC50, cell-based assay for SMAD pathway (A204 luciferase reporter) (Activin A): 1 nM

B4: FS315R78N/N80T-hFcLALA (Fc fusion)
chain: GNCWLRQAKNGRCQVLYKTELSKEECCSTGRLSTSWTEEDVNDNTLFKWMIFNGGAPNCIPCKETCENVDCGPGKKCNMTKKNKPRCVCAPDCSNITWKGPVCGLDGKTYRNECALLKARCKEQPELEVQYQGRCKKTCRDVFCPGSSTCVVDQTNNAYCVTCNRICPEPASSEQYLCGNDGVTYSSACHLRKATCLLGRSIGLAYEGKCIKAKSCEDIQCTGGKKCLWDFKVGRGRCSLCDELCPDSKSDEPVCASDNATYASECAMKEAACSSGVLLEVKHSGSCNSISEDTEEEEEDEDQDYSFPISSILEW[here human IgG1 Fc with changes without letters]
Kd (Myostatin [1]): 0.013 nM | Kd (Myostatin [2]): 0.013 nM

B5: FS315R86N/V88T-hFcLALA (Fc fusion)
chain: GNCWLRQAKNGRCQVLYKTELSKEECCSTGRLSTSWTEEDVNDNTLFKWMIFNGGAPNCIPCKETCENVDCGPGKKCRMNKKNKPNCTCAPDCSNITWKGPVCGLDGKTYRNECALLKARCKEQPELEVQYQGRCKKTCRDVFCPGSSTCVVDQTNNAYCVTCNRICPEPASSEQYLCGNDGVTYSSACHLRKATCLLGRSIGLAYEGKCIKAKSCEDIQCTGGKKCLWDFKVGRGRCSLCDELCPDSKSDEPVCASDNATYASECAMKEAACSSGVLLEVKHSGSCNSISEDTEEEEEDEDQDYSFPISSILEW[here human IgG1 Fc with changes without letters]
Kd (Myostatin [1]): 0.0127 nM | Kd (Myostatin [2]): 0.0127 nM | binding result (BMP-10): no binding (tested: 25-0.190 nM)

B6: FS315ΔHBS-hFcLALA (Fc fusion)
chain: GNCWLRQAKNGRCQVLYKTELSKEECCSTGRLSTSWTEEDVNDNTLFKWMIFNGGAPNCIPCKETCENVDCGPGSTCVVDQTNNAYCVCAPDCSNITWKGPVCGLDGKTYRNECALLKARCKEQPELEVQYQGRCKKTCRDVFCPGSSTCVVDQTNNAYCVTCNRICPEPASSEQYLCGNDGVTYSSACHLRKATCLLGRSIGLAYEGKCIKAKSCEDIQCTGGKKCLWDFKVGRGRCSLCDELCPDSKSDEPVCASDNATYASECAMKEAACSSGVLLEVKHSGSCNSISEDTEEEEEDEDQDYSFPISSILEW[here human IgG1 Fc with changes without letters]
Activin A IC50, cell-based assay for SMAD pathway (A204 luciferase reporter) (Activin A): 1.4 nM

B7: FS303K(76,81,82)A-hFcLALA (Fc fusion)
chain: GNCWLRQAKNGRCQVLYKTELSKEECCSTGRLSTSWTEEDVNDNTLFKWMIFNGGAPNCIPCKETCENVDCGPGKACRMNAANKPRCVCAPDCSNITWKGPVCGLDGKTYRNECALLKARCKEQPELEVQYQGRCKKTCRDVFCPGSSTCVVDQTNNAYCVTCNRICPEPASSEQYLCGNDGVTYSSACHLRKATCLLGRSIGLAYEGKCIKAKSCEDIQCTGGKKCLWDFKVGRGRCSLCDELCPDSKSDEPVCASDNATYASECAMKEAACSSGVLLEVKHSGSCNSISEDTEEEEEDEDQ[here human IgG1 Fc with changes without letters]
notes: built from its name
Kd (Myostatin [1]): 0.0127 nM | binding result (BMP-9): no binding (tested: 25-0.190 nM) | binding result (BMP-10): no binding (tested: 25-0.190 nM)

B8: FS303K82T-hFcLALA (Fc fusion)
chain: GNCWLRQAKNGRCQVLYKTELSKEECCSTGRLSTSWTEEDVNDNTLFKWMIFNGGAPNCIPCKETCENVDCGPGKKCRMNKTNKPRCVCAPDCSNITWKGPVCGLDGKTYRNECALLKARCKEQPELEVQYQGRCKKTCRDVFCPGSSTCVVDQTNNAYCVTCNRICPEPASSEQYLCGNDGVTYSSACHLRKATCLLGRSIGLAYEGKCIKAKSCEDIQCTGGKKCLWDFKVGRGRCSLCDELCPDSKSDEPVCASDNATYASECAMKEAACSSGVLLEVKHSGSCNSISEDTEEEEEDEDQ[here human IgG1 Fc with changes without letters]
notes: built from its name
Kd (Myostatin [1]): 0.0097 nM | binding result (BMP-9): no binding (tested: 25-0.190 nM) | binding result (BMP-10): no binding (tested: 25-0.190 nM)

B9: FS315K(81,82)A-GGG-hFcLALA (Fc fusion)
chain: GNCWLRQAKNGRCQVLYKTELSKEECCSTGRLSTSWTEEDVNDNTLFKWMIFNGGAPNCIPCKETCENVDCGPGKKCRMNAANKPRCVCAPDCSNITWKGPVCGLDGKTYRNECALLKARCKEQPELEVQYQGRCKKTCRDVFCPGSSTCVVDQTNNAYCVTCNRICPEPASSEQYLCGNDGVTYSSACHLRKATCLLGRSIGLAYEGKCIKAKSCEDIQCTGGKKCLWDFKVGRGRCSLCDELCPDSKSDEPVCASDNATYASECAMKEAACSSGVLLEVKHSGSCNSISEDTEEEEEDEDQDYSFPISSILEWGGG[here human IgG1 Fc with changes without letters]
notes: built from its name: follistatin variant, GGG linker, hFcLALA
Kd (Myostatin [1]): 0.0107 nM

B10: FS315K82T-GGG-hFcLALA (Fc fusion)
chain: GNCWLRQAKNGRCQVLYKTELSKEECCSTGRLSTSWTEEDVNDNTLFKWMIFNGGAPNCIPCKETCENVDCGPGKKCRMNKTNKPRCVCAPDCSNITWKGPVCGLDGKTYRNECALLKARCKEQPELEVQYQGRCKKTCRDVFCPGSSTCVVDQTNNAYCVTCNRICPEPASSEQYLCGNDGVTYSSACHLRKATCLLGRSIGLAYEGKCIKAKSCEDIQCTGGKKCLWDFKVGRGRCSLCDELCPDSKSDEPVCASDNATYASECAMKEAACSSGVLLEVKHSGSCNSISEDTEEEEEDEDQDYSFPISSILEWGGG[here human IgG1 Fc with changes without letters]
notes: built from its name
Kd (Myostatin [1]): 0.013 nM

B11: FS315K(76,81,82)A-GGG-hFcLALA (Fc fusion)
chain: GNCWLRQAKNGRCQVLYKTELSKEECCSTGRLSTSWTEEDVNDNTLFKWMIFNGGAPNCIPCKETCENVDCGPGKACRMNAANKPRCVCAPDCSNITWKGPVCGLDGKTYRNECALLKARCKEQPELEVQYQGRCKKTCRDVFCPGSSTCVVDQTNNAYCVTCNRICPEPASSEQYLCGNDGVTYSSACHLRKATCLLGRSIGLAYEGKCIKAKSCEDIQCTGGKKCLWDFKVGRGRCSLCDELCPDSKSDEPVCASDNATYASECAMKEAACSSGVLLEVKHSGSCNSISEDTEEEEEDEDQDYSFPISSILEWGGG[here human IgG1 Fc with changes without letters]
notes: built from its name
Kd (Myostatin [1]): 0.0109 nM

B12: FS303K(76,81,82)A-GGG-hFcLALA (Fc fusion)
chain: GNCWLRQAKNGRCQVLYKTELSKEECCSTGRLSTSWTEEDVNDNTLFKWMIFNGGAPNCIPCKETCENVDCGPGKACRMNAANKPRCVCAPDCSNITWKGPVCGLDGKTYRNECALLKARCKEQPELEVQYQGRCKKTCRDVFCPGSSTCVVDQTNNAYCVTCNRICPEPASSEQYLCGNDGVTYSSACHLRKATCLLGRSIGLAYEGKCIKAKSCEDIQCTGGKKCLWDFKVGRGRCSLCDELCPDSKSDEPVCASDNATYASECAMKEAACSSGVLLEVKHSGSCNSISEDTEEEEEDEDQGGG[here human IgG1 Fc with changes without letters]
notes: built from its name
Kd (Myostatin [1]): 0.0116 nM

B13: FS303K82T-GGG-hFcLALA (Fc fusion)
chain: GNCWLRQAKNGRCQVLYKTELSKEECCSTGRLSTSWTEEDVNDNTLFKWMIFNGGAPNCIPCKETCENVDCGPGKKCRMNKTNKPRCVCAPDCSNITWKGPVCGLDGKTYRNECALLKARCKEQPELEVQYQGRCKKTCRDVFCPGSSTCVVDQTNNAYCVTCNRICPEPASSEQYLCGNDGVTYSSACHLRKATCLLGRSIGLAYEGKCIKAKSCEDIQCTGGKKCLWDFKVGRGRCSLCDELCPDSKSDEPVCASDNATYASECAMKEAACSSGVLLEVKHSGSCNSISEDTEEEEEDEDQGGG[here human IgG1 Fc with changes without letters]
notes: built from its name
Kd (Myostatin [1]): 0.0096 nM
